Experimental data reported in patent US20190002581A1 (SUTRO BIOPHARMA, published 2019).

B1: SRP1557-G06 scFv-Fc antibody (Fc fusion)
chain: MEVQLLESGGGLVQPGGSLRLSCAASGFTFSGFSMSWVRQAPGKGLEWVGAIDGGEGSTGYADSVKGRFTISRDNSKNTLYLQMNSLRAEDTAVYYCAKGWHPQTLYHLDYWGQGTLVTVSSGGGGSGGGGSGGGGSEIVLTQSPGTLSLSPGERATLSCRASQSIPSSYLAWYQQEPGQAPRLLIYGASSRATGIPDRFSGSGSGTDFTLTISRLEPEDFAVYYCQQLATSPPTFGQGTKVEIKAAGSDQ[letters of human IgG1 Fc with changes omitted]GSGDYKDDDDKGSGHHHHHH
notes: scFv-Fc format; the entry holds scFv, IgG1 Fc, FLAG and His tags
B2: SRP1557-F01 scFv-Fc antibody (Fc fusion)
chain: MEVQLLESGGGLVQPGGSLRLSCAASGFTFSGSSMSWVRQAPGKGLEWVGAIDGGEGSTGYADSVKGRFTISRDNSKNTLYLQMNSLRAEDTAVYYCAKGWHPQTLYDLDYWGQGTLVTVSSGGGGSGGGGSGGGGSEIVLTQSPGTLSLSPGERATLSCRASQSVSSSKLAWYQQKPGQAPRLLIYGASSRATGIPDRFSGYGSGTDFTLTISRLEPEDFAVYYCQQLETIPPTFGQGTKVEIKAAGSDQ[letters of human IgG1 Fc with changes omitted]GSGDYKDDDDKGSGHHHHHH
notes: as for B1
B3: SRP1557-H10 scFv-Fc antibody (Fc fusion)
chain: MEVQLLESGGGLVQPGGSLRLSCAASGFTFSGSSMSWVRQAPGKGLEWVGAIDGGEGSTGYADSVKGRFTISRDNSKNTLYLQMNSLRAEDTAVYYCAKGWHPQSMYDLDYWGQGTLVTVSSGGGGSGGGGSGGGGSEIVLTQSPGTLSLSPGERATMSCRASQVLSSSSLAWYQQKPGQAPRLLIYGASSRATGIPDRFSGSGSGTDFTLTISRLEPEDFAVYYCQQLVTAPPTFGQGTKVEIKAAGSDQ[letters of human IgG1 Fc with changes omitted]GSGDYKDDDDKGSGHHHHHH
notes: as for B1
B4: SRP1557-H04 scFv-Fc antibody (Fc fusion)
chain: MEVQLLESGGGLVQPGGSLRLSCAASGFTFSVTSMSWMRQAPGKGLEWVGAIAGGEGSTGYADSVKGRFTISRDNSKNTLYLQMNSLRAEDTAVYYCAKGWHPQTLYDLDYWGQGTLVTVSSGGGGSDGGGSGGGGSEIVLTQGPSTLSLSPGERATLSCRASQSVSTGYLAWYQQKPGQAPRLLIYGASSRATGIPDRFSGSGSGTDFTLTISRLEPEDFAVYYCQQLVTRPPTFGQGTKVEIKAAGSDQ[letters of human IgG1 Fc with changes omitted]GSGDYKDDDDKGSGHHHHHH
notes: as for B1
B5: SRP1557-E11 scFv-Fc antibody (Fc fusion)
chain: MEVQLLESGGGLVQPGGSLRLSCAASGFTFRGSSMSWVRQAPGKGLEWVGAIDGGEGSTGYADSVKGRFTINRDNSKNTLYLQMNSLRAEDTAVYYCAKGWHPQSLYDLDYWGQGTLVTVSSGGGGSGGGDSGGGGSEIVLTQSPGTLSLSPGERATLSCRASQPVPNTTLAWYQQKPGQAPRLLIYGASSRATGIPDRFSGSGSGTDFTLTISRLEPEDFAAYYCQQLVPSPPTFGQGTKVEIKAAGSDQ[letters of human IgG1 Fc with changes omitted]GSGDYKDDDDKGSGHHHHHH
notes: as for B1
B6: SRP1332-A05 scFv-Fc antibody (Fc fusion)
chain: MELVMTQSPSSLTVTAGEKVTMSCKSSQSLLNSGNQKNYLTWYQQKPGQPPKLLIYWASTRESGVPDRFTGSGSGTDFTLTISSVQAEDLAVYYCQNDLSYPLTFGAGTKLEIKGGGGSGGGGSGGGGSEVQLLEQSGAELVRPGTSVKISCKASDYAFANRWLGWVKQRPGHGLEWIGDIFPGSGNIHYNEKFKGKATLTADKSSSTAYMQLSSLTFEDSAVYFCARLRNWEGPMDYWGQGTTVTVSSAAGSDQ[letters of human IgG1 Fc with changes omitted]GSGDYKDDDDKGSGHHHHHH
notes: scFv-Fc format (VL-VH order); the entry holds scFv, IgG1 Fc, FLAG and His tags
B7: SRP1332-F11 scFv-Fc antibody (Fc fusion)
chain: MELVMTQSPSSLTVTAGEKVTMSCKSSQSLLNSGNQKNYLTWYQQKPGQPPKLLIYRASTRESGVPDRFTGSGSGTDFTLTISSVQAEDLAVYYCQNDSSYPLTFGAGTKLEIKGGGGSGGGGSGGGGSEVQLLEQSGAELVRPGTSVKISCKASGYAFANRWLGWVKQRPGHGLEWIGDIFPGSGNIHYNEKFKGKATLTADKSSSTAYMQLSSLTFEDSAVYFCARLRNWEGPMDYWGQGTTVTVSSAAGSDQ[letters of human IgG1 Fc with changes omitted]GSGDYKDDDDKGSGHHHHHH
notes: as for B6
B8: SRP1332-C01 scFv-Fc antibody (Fc fusion)
chain: MELVMTQSPSSLTVTAGEKVTMSCKSSQSLLNSGNQKNYLTWYQQKPGQPPKLLIYWASTRESGVPDRFTGSGSGTDFTLTISSVQAEDLAVYYCQNDYRYPLTFGAGTKLEIKGGGGSGGGGSGGGGSEVQLLEQSGAELVRPGTSVKISCKASGYAFTNSWLGWVKQRPGHGLEWIGDIFPGSGNIHYNEKFKGKATLTADKSSSTAYMQLSSLTFEDSAVYFCARLRNWDMPMDYWGQGTTVTVSSAAGSDQ[letters of human IgG1 Fc with changes omitted]GSGDYKDDDDKGSGHHHHHH
notes: as for B6

Target: T1, cynomolgus EpCAM (Biacore) (cynomolgus monkey, limits assumed)
T1 construct: Construct used for the cyno Biacore measurements is not described; also called Cyno EpCAM (Biacore); cEpCAM
T1 chain: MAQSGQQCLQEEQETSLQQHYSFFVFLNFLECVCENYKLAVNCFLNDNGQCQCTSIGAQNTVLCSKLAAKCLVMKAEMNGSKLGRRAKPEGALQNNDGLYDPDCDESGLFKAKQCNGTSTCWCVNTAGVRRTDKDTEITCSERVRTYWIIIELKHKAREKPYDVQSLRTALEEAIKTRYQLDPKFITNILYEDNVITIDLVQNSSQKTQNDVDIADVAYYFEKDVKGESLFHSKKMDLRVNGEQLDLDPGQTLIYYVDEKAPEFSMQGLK
Assay: SPR (Biacore), cyno EpCAM

| Binder | Kd [nM] |
| --- | --- |
| B1 | 15.2 |
| B2 | 1.17 |
| B3 | 35.2 |
| B4 | 7.22 |
| B5 | 45.2 |

What follows are binders tested against T2, cynomolgus EpCAM expressed on stably transfected CHO cells (cynomolgus monkey, UniProt Q1WER1 26-314 (rhesus entry)) (assay: flow cytometry, CHO cells expressing cyno EpCAM).
T2 construct: also called Cyno EpCAM (CHO)
T2 sequence: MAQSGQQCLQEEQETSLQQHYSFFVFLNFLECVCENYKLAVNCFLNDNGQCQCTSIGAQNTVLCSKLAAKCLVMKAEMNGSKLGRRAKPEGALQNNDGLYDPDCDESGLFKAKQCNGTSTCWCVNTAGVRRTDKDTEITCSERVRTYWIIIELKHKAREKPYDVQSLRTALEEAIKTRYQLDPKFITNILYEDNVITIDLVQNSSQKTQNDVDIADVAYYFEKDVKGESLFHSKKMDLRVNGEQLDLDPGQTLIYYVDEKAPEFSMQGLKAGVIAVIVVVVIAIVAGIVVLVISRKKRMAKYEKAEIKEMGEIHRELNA
Protocol: (§1) CHO-k cells were transfected to stably express EpCAM on the cell surface. CHO parental and stably transfected CHO-EpCAM (human, cynomolgus and mouse EpCAM-expressing cells) cells were washed with DPBS, detached with Accutase™ (BD Biosciences; San Jose, Calif.), and resuspended in ice-cold FACS buffer (DPBS buffer supplemented with 0.5% bovine serum albumin).
(§2) A total of 200,000 cells per 96-well were incubated on ice for 60 mins with 100 nM of test antibodies diluted in FACS buffer. Cells were washed twice with FACS buffer and incubated on ice for 30 mins with R-phycoerythrin AffiniPure F(ab′)₂ fragment, goat anti-Human IgG, Fcγ fragment specific secondary detection antibody (Jackson ImmunoResearch Laboratories, West Grove, Pa.) diluted at 1:200 with FACS buffer. Cells were washed twice with FACS buffer, fixed in 4% paraformaldehyde in PBS (Santa Cruz Biotechnology; Dallas, Tex.) for 20 mins on ice in the dark, washed twice with FACS buffer and analyzed using the BD LSR II Flow Cytometer (BD Biosciences; San Jose, Calif.). Data were analyzed using FlowJo (FlowJo, LLC; Ashland, Oreg.) to determine mean fluorescence intensities. Binding constants were calculated using the statistical software, GraphPad Prism (GraphPad Software; La Jolla, Calif.) using the nonlinear regression equation, one site-specific binding with Hill slope. Secondary antibody alone was used as a control, in addition to measuring non-specific EpCAM antibody binding to CHO parental cells. For some variants, binding to human tumor cells, HCT 116 and JIMT1 cells were also evaluated.

| Binder | Kd [nM] |
| --- | --- |
| B1 | 1.62 |
| B2 | 1.21 |
| B3 | 0.99 |
| B4 | 0.87 |
| B5 | 1.07 |

These binders were tested against T3, human EpCAM expressed on cells (stably transfected CHO cells, HCT-116, JIMT1) (human, UniProt P16422 24-314) (assay: flow cytometry, CHO cells expressing human EpCAM).
T3 construct: also called Human EpCAM (CHO); Human EpCAM (HCT-116)
T3 sequence: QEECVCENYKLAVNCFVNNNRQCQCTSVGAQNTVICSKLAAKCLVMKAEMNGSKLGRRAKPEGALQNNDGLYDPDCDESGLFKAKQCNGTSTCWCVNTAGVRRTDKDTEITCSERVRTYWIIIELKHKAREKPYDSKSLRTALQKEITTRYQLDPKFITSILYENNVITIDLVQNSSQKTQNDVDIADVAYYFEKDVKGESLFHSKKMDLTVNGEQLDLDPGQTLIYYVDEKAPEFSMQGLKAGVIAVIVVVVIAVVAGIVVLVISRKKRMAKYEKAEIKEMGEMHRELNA
Protocol: as §1, §2

| Binder | Kd [nM] |
| --- | --- |
| B1 | 2.47 |
| B2 | 1.96 |
| B3 | 2.59 |
| B4 | 1.89 |
| B5 | 1.69 |
| B6 | 2 |
| B7 | 1.14 |
| B8 | 1.6 |

What follows are binders tested against T4, human EpCAM protein adsorbed on the plate (ELISA) (human, UniProt P16422 24-265) (assay: ELISA, human EpCAM adsorbed on plate, anti-human Fc-HRP).
T4 construct: also called Human EpCAM (ELISA); recombinant human EpCAM extracellular domain (ECD)
T4 sequence: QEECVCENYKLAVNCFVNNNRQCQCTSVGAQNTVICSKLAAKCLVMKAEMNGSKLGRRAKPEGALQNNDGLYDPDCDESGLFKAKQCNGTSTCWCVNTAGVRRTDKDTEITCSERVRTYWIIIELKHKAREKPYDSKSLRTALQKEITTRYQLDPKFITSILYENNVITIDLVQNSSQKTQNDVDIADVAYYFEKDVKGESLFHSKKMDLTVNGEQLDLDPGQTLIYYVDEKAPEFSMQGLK

| Binder | EC50 [nM] |
| --- | --- |
| B6 | 0.47 |
| B7 | 0.47 |
| B8 | 0.33 |

What follows are binders tested against T5, human EpCAM-His (analyte of the Biacore experiments) (human, UniProt P16422 24-265) (assay: SPR (Biacore), scFv-Fc captured on anti-FLAG, human EpCAM-His as analyte, 25 C).
T5 construct: also called Human EpCAM (Biacore); hEpCAM
T5 sequence: T4 sequence
Protocol: Monoclonal Anti-FLAG M2 IgG (Sigma-Aldrich # F9291) was immobilized onto a CMS chip (GE Life Sciences) using amine coupling chemistry (from Amine Coupling Kit, GE Life Sciences). The immobilization steps were carried out at a flow rate of 25 μL/min in 1×HBS-EP+ buffer (GE Life Sciences; 10× Stock diluted before use). The sensor surfaces were activated for 7 min with a mixture of NHS (0.05 M) and EDC (0.2 M). The Anti-Flag M2 IgG was injected over all 4 flow cells at a concentration of 25 μg/mL in 10 mM sodium acetate, pH 4.5, for 7 min. Ethanolamine (1 M, pH 8.5) was injected for 7 min to block any remaining activated groups. An average of 12,000 response units (RU) of capture antibody was immobilized on each flow cell.
Off-rate and Kinetic binding experiments were performed at 25° C. using 1×HBS-EP+ buffer. Test and control antibodies were injected over the Anti-FLAG surface at concentrations of 5-10 μg/mL for 12 seconds at a flow rate of 10 μL/min on flow cells 2, 3 and 4, followed by a buffer wash for 30 seconds at the same flow rate. Kinetic characterization of antibody samples was carried out with a single concentration of antigen (for off-rate ranking) or a 1:2 dilution series of antigen (for kinetic characterization) and 1 injection of 0 nM antigen. After capturing ligand (antibody) on the anti-FLAG surface, the analyte (human EpCAM-His) was bound at 50, 25, 12.5, 6.25 and 0 nM for 180 seconds, followed by a 600 second dissociation phase at a flow rate of 50 μl/min. Between each ligand capture and analyte binding cycle, regeneration was carried out using 2 injections of 10 mM glycine pH 2.0 for 30 seconds at 30 μL/min, followed by a 30 second buffer wash step.
The data were fit with the Biacore T200 Evaluation software, using a 1:1 Langmuir binding model. KD (affinity, nM) was determined as a ratio of the kinetic rate constants calculated from the fits of the association and dissociation phases.

| Binder | Kd [nM] | koff [s⁻¹] | kon [M⁻¹ s⁻¹] |
| --- | --- | --- | --- |
| B1 | 6.7 | 0.000939 | 140000 |
| B2 | 7.21 | 0.00169 | 235000 |
| B3 | 1.19 | 0.000306 | 257000 |
| B4 | 2.54 | 0.000787 | 310000 |
| B5 | 3.44 | 0.000604 | 176000 |
| B6 | 1.45 | 0.000297 | 205000 |
| B7 | 1.41 | 0.000257 | 182000 |
| B8 | 0.904 | 0.000257 | 284000 |
